Reference: patent US20190016816A1 (APTEVO RESEARCH AND DEVELOPMENT, published 2019)

T1: human 5T4 on cells (human, UniProt Q13641 32-420)
T1 construct: also called TPBG; hu5T4
T1 sequence: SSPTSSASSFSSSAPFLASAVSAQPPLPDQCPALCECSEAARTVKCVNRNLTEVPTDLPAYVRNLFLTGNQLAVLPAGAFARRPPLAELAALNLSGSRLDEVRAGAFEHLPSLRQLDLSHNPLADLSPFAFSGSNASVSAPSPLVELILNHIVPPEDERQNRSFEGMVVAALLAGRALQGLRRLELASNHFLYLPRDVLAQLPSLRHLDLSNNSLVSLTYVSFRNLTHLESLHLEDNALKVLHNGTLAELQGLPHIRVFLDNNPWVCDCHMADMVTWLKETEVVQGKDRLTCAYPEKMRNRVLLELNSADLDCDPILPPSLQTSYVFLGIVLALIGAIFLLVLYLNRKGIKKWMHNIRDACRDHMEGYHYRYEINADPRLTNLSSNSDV

T2: cynomolgus 5T4 on cells (cynomolgus macaque, UniProt Q4R8Y9 35-420)
T2 construct: whole, on cells; also called CHO-K1/cynomolgus 5T4 transfectants
T2 sequence (looked up): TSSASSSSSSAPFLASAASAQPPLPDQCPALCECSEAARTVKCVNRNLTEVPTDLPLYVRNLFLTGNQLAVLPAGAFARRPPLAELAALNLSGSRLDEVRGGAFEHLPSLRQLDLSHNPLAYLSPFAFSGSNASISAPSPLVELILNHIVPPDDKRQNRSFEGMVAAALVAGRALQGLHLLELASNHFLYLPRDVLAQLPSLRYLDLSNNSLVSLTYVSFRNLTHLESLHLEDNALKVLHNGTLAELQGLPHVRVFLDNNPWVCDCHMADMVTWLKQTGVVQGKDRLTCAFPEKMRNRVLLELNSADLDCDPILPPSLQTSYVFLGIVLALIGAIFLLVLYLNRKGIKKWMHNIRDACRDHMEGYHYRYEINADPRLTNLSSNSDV


Legend:
[1] = target: T1, human 5T4 on cells; experiment: flow cytometry, SKOV-3 cells (endogenous human 5T4), labelled anti-human IgG secondary, MFI (mean)
Experimental: (§1) Binding studies were performed by standard flow cytometry-based staining procedures two cell lines expressing 5T4:CHO-K1 cells (obtained from Alligator) transduced with human or cynomolgus macaque 5T4 and SKOV-3 human ovarian adenocarcinoma cells which express (human) 5T4. All labeling and washes were performed in U-bottom 96-well plates in saline buffer with 0.1% BSA and 2 mM EDTA. Cell were plated at approximately 100,000 cells per well and incubated with a range of 100 nM to 0.05 nM concentrations of test molecules in […], for 30 minutes on ice. Cells were washed three times then incubated for another 30 min on ice with fluorescently-labeled secondary polyclonal antibody, F(ab′)² goat anti-human IgG (Jackson ImmunoResearch Laboratories). The cells were then washed twice and the samples acquired in a BD LSRII or a Symphony A3 flow cytometer. The sample files were analyzed using FlowJo software; the mean fluorescence intensity (MFI-mean) or median fluorescence intensity (MFI-median) of the live population of cells in each well was calculated after gating on live cells (forward vs side scatter). Nonlinear regression analysis to determine EC₅₀ values was performed in GraphPad Prism 6® graphing and statistics software.

[2] = target: T3, human CD137 on cells (human, UniProt Q07011 24-255); experiment: cell-based or functional assay
[3] = target: T1, human 5T4 on cells; experiment: flow cytometry, CHO-K1 cells expressing human 5T4, labelled anti-human IgG secondary, MFI (mean)
Experimental: as §1

[4] = target: T3, human CD137 on cells; experiment: cell-based or functional assay; remark: listed apart in the source
[5] = target: T1, human 5T4 on cells; experiment: flow cytometry on human 5T4-expressing cells
[6] = target: T4, cynomolgus CD137 on cells (cynomolgus macaque, UniProt A9YYE7 24-254); experiment: flow cytometry, CHO-K1 cells expressing cynomolgus CD137, PE anti-human IgG Fc secondary, MFI (median)
T4 construct: whole, on cells; also called CHO-K1/cynomolgus CD137 cell line; cynomolgus monkey CD137 on CD3-stimulated primary CD8 T cells
Experimental: (§2) Binding studies on CHO-K1 cells lines expressing CD137 were performed by standard flow cytometry-based staining procedures. CHO-K1 cells (generated by Alligator) were transfected with human or cynomolgus macaque CD137. A typical experiment would label approximately 100,000 cells per well, in 96-well plates, with a range of 100 nM to 0.05 nM binding molecule in 50 μL of saline buffer with 2% BSA and 2 mM EDTA, for 30 min on ice, followed by washes and incubation with PE-labeled secondary antibody, goat anti-human IgG Fcγ ([…]), for 20 minutes on ice. Signal from bound molecules was detected using a LSR-II™ or a Symphony A3 flow cytometer (BD Biosciences) and analyzed by FlowJo flow cytometry analysis software. Median fluorescence intensity (MFI-median) of bound molecules on live cells was determined after exclusion of doublets cells. Nonlinear regression analysis to determine EC₅₀ values was performed in GraphPad Prism 6® graphing and statistics software.

[7] = target: T2, cynomolgus 5T4 on cells; experiment: flow cytometry, CHO-K1 cells expressing cynomolgus 5T4, labelled anti-human IgG secondary, MFI (median)
Experimental: as §1

[8] = target: T3, human CD137 on cells; experiment: flow cytometry, CHO-K1 cells expressing human CD137, PE anti-human IgG Fc secondary, MFI (median)
Experimental: as §2

[9] = target: T3, human CD137 on cells; experiment: flow cytometry, CHO-K1/human CD137 cells, PE anti-human IgG Fc secondary, MFI (mean)
Experimental: as §2, with “Median fluorescence intensity (MFI-median) of bound molecules on live cells was determined after exclusion of doublets cells.” left out

[10] = target: T5, recombinant human CD137 extracellular domain (ECD) (human); experiment: SPR (Biacore T200, 25 C), bispecific captured on anti-human IgG, monomeric ECD injected, 1:1 fit
T5 construct: Monomeric, made in HEK-293; also called Hu CD137; human 4-1BB ECD
Experimental: Goat anti-human IgG F(ab′)2 fragment (Jackson ImmunoResearch) at 20 μg/mL in 10 mM sodium acetate (pH 4.5) was immobilized at a density of 2000 response units (RU) onto the flow cell of a CM5 research-grade sensor chip (GE) by standard amine coupling chemistry. Each bispecific variant at 200 nM in HBS-EP+ buffer was captured in the flow cell with the immobilized anti-human IgG at a flow rate of 50 μL/min for 60 sec to reach ˜500 RU response, leaving one flow cell surface unmodified as the reference. Following a 30 sec stabilization period, four different concentrations of each ECD (0, 20, 60, and 180 nM) were injected at 50 μL/min for either 120 sec followed by a 240 sec dissociation period (for 5T4) or 90 sec followed by a 180 sec dissociation period (for 4-1BB). Regeneration was achieved by duplicate injections of 10 mM glycine (pH 1.5) at a flow rate of 50 μL/min for 30 sec followed by HBS-EP+ buffer stabilization for 1 min.
Sensorgrams obtained from kinetic SPR measurements were analyzed by the double subtraction method. […] The averaged buffer reference responses were then subtracted from analyte binding responses, and the final double-referenced data were analyzed with Biacore T200 Evaluation software (2.0, GE), globally fitting data to derive kinetic parameters. […]

[11] = target: T3, human CD137 on cells; experiment: cell-based or functional assay; remark: listed apart in the source
[12] = target: T1, human 5T4 on cells; experiment: flow cytometry, murine CT26 cells expressing human 5T4, labelled anti-human IgG secondary, MFI (mean)
[13] = target: T2, cynomolgus 5T4 on cells; experiment: flow cytometry, CHO-K1/cynomolgus 5T4 transfectants, labelled anti-human IgG secondary, MFI (mean)
Experimental: as §1

T3 sequence (Q07011 24-255 limits assumed): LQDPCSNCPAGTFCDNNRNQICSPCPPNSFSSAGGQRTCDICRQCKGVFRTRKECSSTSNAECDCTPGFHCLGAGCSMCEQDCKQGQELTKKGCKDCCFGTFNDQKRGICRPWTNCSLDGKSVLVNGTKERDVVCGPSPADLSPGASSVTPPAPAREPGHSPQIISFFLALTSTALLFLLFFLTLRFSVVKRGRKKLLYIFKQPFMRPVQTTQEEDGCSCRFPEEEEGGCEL
T4 sequence (A9YYE7 entry or part of it): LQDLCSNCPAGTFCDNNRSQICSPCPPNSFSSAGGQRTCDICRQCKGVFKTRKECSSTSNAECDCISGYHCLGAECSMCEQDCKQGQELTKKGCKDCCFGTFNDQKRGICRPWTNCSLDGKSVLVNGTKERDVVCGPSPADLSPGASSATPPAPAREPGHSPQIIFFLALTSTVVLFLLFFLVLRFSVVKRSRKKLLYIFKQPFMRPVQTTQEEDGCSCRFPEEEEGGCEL

EC50 [1] | Maximum MFI [1] | CD137 Reporter Assay EC50 [2] | EC50 [3] | Maximum MFI [3] | In vitro activity EC50 (nM), CD137 reporter assay [4] | EC50 [5] | EC50 [6] | EC50 [7] | Maximum MFI [7] | EC50 [8] | EC50 [9] | Maximum MFI [9] | Kd [10] | CD137 reporter assay with HCC1143 cells, EC50 against ALG.APV-004 [11] | CD137 reporter assay with HCC1143 cells, EC50 against ALG.APV-006 and ALG.APV-004 [11] | EC50 [12] | Maximum MFI [12] | EC50 [13] | Maximum MFI [13] | Binder
7 nM | 1660 | 0.23 nM | 8.6 nM | 14800 | 0.23 nM | 15.7 nM | 1.8 nM | 22 nM | 24800 | 1.2 nM | – | – | – | – | – | – | – | – | – | ALG.APV-006 (bispecific antibody, ADAPTIR scFv-Fc-scFv homodimer; also called 1618 VHVL -Fc-1210 VHVL; parent construct) EVQLLESGGGLVQPGGSLRLSCAASGFTFSYGSMYWVRQAPGKGLEWVSSISSGSGSTYYADSVKGRFTISRDNSKNTLYLQMNSLRAEDTAVYYCARSSYYGSYYSIDYWGQGTLVTVSSGGGGSGGGGSGGGGSGGGGSDIQMTQSPSSLSASVGDRVTITCRASQSISSYLNWYQQKPGKAPKLLIYAASSLQSGVPSRFSGSGSGTDFTLTISSLQPEDFATYYCQQYYDNLPTFGQGTKLEIKSSSEPKSSDKTHTCPPCPAPEAAGAPSVFLFPPKPKDTLMISRTPEVTCVVVDVSHEDPEVKFNWYVDGVEVHNAKTKPREEQYNSTYRVVSVLTVLHQDWLNGKEYKCAVSNKALPAPIEKTISKAKGQPREPQVYTLPPSRDELTKNQVSLTCLVKGFYPSDIAVEWESNGQPENNYKTTPPVLDSDGSFFLYSKLTVDKSRWQQGNVFSCSVMHEALHNHYTQKSLSLSPGSGGGGSGGGGSGGGGSPS[letters of about 100 residues left out]YYGGYYSAWMDYWGQGTLVTVSSGGGGSGGGGSGGGGSGGGGSDIQMTQSPSSLSASVGDRVTITCRASQSISSYLNWYQQKPGKAPKLLIYAASSLQSGVPSRFSGSGSGTDFTLTISSLQPEDFATYYCQQTYGYLHTFGQGTKLEIKS
7.8 nM | 1650 | – | 8.8 nM | 14100 | – | – | 1.7 nM | 32 nM | 26100 | 1 nM | 0.36 nM | 6720 | 70 nM | 10 fold lower EC50 | ≤ 6 fold lower EC50 | 1.8 nM | 1480 | 9.5 nM | 26700 | ALG.APV-178 (bispecific antibody, Optimized ADAPTIR scFv-Fc-scFv homodimer (anti-4-1BB scFv - Fc - anti-5T4 scFv)) EVQLLESGGGLVQPGGSLRLSCAASGFTFSHGSMYWVRQAPGKGLEWVSSISSGSGSTYYADSVKGRFTISHDNSKNTLYLQMNSLRAEDTAVYYCARSSYYGSYYSIDYWGQGTLVTVSSGGGGSGGGGSGGGGSGGGGSDIQMTQSPSSLSASVGDRVTITCRASQSISSYLNWYQQKPGKAPKLLIYAASSLQSGVPSRFSGSGSGTDFTLTISSLQPEDFATYYCQQYYDNLPTFGQGTKLEIKSSEPKSSDKTHTCPPCPAPEAAGAPSVFLFPPKPKDTLMISRTPEVTCVVVDVSHEDPEVKFNWYVDGVEVHNAKTKPREEQYNSTYRVVSVLTVLHQDWLNGKEYKCAVSNKALPAPIEKTISKAKGQPREPQVYTLPPSRDELTKNQVSLTCLVKGFYPSDIAVEWESNGQPENNYKTTPPVLDSDGSFFLYSKLTVDKSRWQQGNVFSCSVMHEALHNHYTQKSLSLSPGSGGGGSGGGGSGGGGSPS[letters of about 100 residues left out]YYGGYYSAWMDYWGQGTLVTVSSGGGGSGGGGSGGGGSGGGGSDIQMTQSPSSLSASVGDRVTITCRASQSISSYLNWYQQKPGKAPKLLIYAASSLQSGVPSRFSGSGSGTDFTLTISSLQPEDSATYYCQQTYGYLHTFGQGTKLEIKR
